Results as given in ChEMBL document CHEMBL5308541, “MAIP: An Open-Source Tool to Enrich High-Throughput Screening Output and Identify Novel, Druglike Molecules with Antimalarial Activity” (ACS Med Chem Lett, 2023).
Screen size: about 4,800 compounds; about 410 (8.5%) showed an effect of 50% or more. The list shows a part of the results.

These molecules were tested on Plasmodium falciparum (assay: Confirmatory screen in NF54 pLDH assay, in single point, at 2uM, 72h). Conditions: timepoint 72 hour.
Format: functional, Erythrocyte

| SMILES | % Inhibition [%] |
| --- | --- |
| c1cc(CN2CCN(c3cc(N4CCN(Cc5ccncc5)CC4)ncn3)CC2)ccn1 | 6 |
| Cc1sc2nc(-c3ccccn3)nc(NCCc3nccn3C)c2c1-c1ccccc1 | 65 |
| Cc1nc(N2CCN(C)CC2)cc(N2CCN(S(=O)(=O)c3ccccc3C(F)(F)F)CC2)n1 | 56 |
| Nc1ccnc2ccc(-c3ccc(C(=O)NCC4CCOCC4)cc3)cc12 | 102 |
| CN1CCC(CNC2CC3CC(C2)N(C(=O)OC(C)(C)C)C3)CC1 (stereo not drawn) | 2 |
| Cc1ccc2nc(NC[C@H]3CCN(C4CC4)C3)cc(C)c2c1 | 100 |
| COc1ccc2c(O)c(Br)c(C)nc2c1 | 72 |
| C[C@@H](c1cccc(-c2nc3cc(C#N)ccc3[nH]2)c1)N(C)C | 29 |
| N[C@H]1CC[C@@H](NC2CCN(c3ccc(F)c(F)c3)CC2)CC1 | 35 |
| Cn1nnc(C(=O)N2CCCCC23CCCCCC3)n1 | 59 |
| Cc1cc(O)c(Cl)cc1-c1cccc2c(N)ccnc12 | 94 |
| CCCN(CCN1CCN(CC)CC1)c1nc(-c2ccccn2)nc2c1CCC2 | 10 |
| Cc1cc(C)c(CN2CCN(C)CC2)cc1CNCCCn1ccnc1C | 44 |
| CCN1CCC(N2CCC(C(=O)NCCc3ccc(OC(F)(F)F)cc3)CC2)CC1 | 53 |
| COc1ccc2c(C)cc(NCCCN3CCC[C@H](C(N)=O)C3)nc2c1 | 100 |
| Cc1noc(-c2ccnc(NC[C@@H](c3ccccn3)N3CCOCC3)c2)n1 | 100 |
| COc1ccc(-c2cc(-c3ccccc3O)n([C@@H]3C(=O)Nc4ccc(Br)cc43)n2)cc1 | 46 |
| CCOc1cc2nccc(N3C[C@H]4CN(C)C[C@H]4C3)c2cc1OCC | 96 |
| O=C(NCc1cccc(-c2cccnc2)c1)N[C@H]1CCN(C2CCCCC2)C1 | 45 |
| Cc1ccc(-c2cccc3c(C(=O)NCCCN4CCC(N5CCCCC5)CC4)cc(C)nc23)cc1 | 103 |
| Cc1ccc2nc(-c3cccc(NC(=O)c4ccc(OC(F)(F)F)c(Cl)c4)c3)[nH]c2n1 | 74 |

| SMILES | % Inhibition [%] |
| --- | --- |
| Cc1cc(N2CCC(NC3CCCC3Cc3ccc(F)cc3)CC2)nc(N)n1 (stereo not drawn) | 103 |
| O=C1CN(C(=O)c2ccnc3ccccc23)CCN1Cc1ccccc1F | 63 |
| NC(=O)[C@]1(O)CCN(c2ccnc3ccc(Oc4ccccc4)cc23)C1 | 33 |
| FC(F)(F)c1ccc(N2CCC[C@H](NC3CCN(Cc4ccco4)CC3)C2)nc1 | 38 |
| CC(NC(=O)OC(C)(C)C)C1CCN(C[C@@H]2CCCN2C(=O)OC(C)(C)C)CC1 (stereo partly drawn) | 20 |
| CNc1nc(C)c(-c2ccnc(Nc3cccc(S(C)(=O)=O)c3)n2)s1 | 45 |
| COc1ccc2[nH]cc(C3=CCN(c4ccc5nnc(-c6ccccc6F)n5n4)CC3)c2c1 | 41 |
| Nc1cc(N2CCC(c3nc4cc(F)ccc4[nH]3)CC2)nc(N2CCOCC2)n1 | 42 |
| CN1CCC(N(C)C[C@H](Nc2ncnc3ccccc23)c2ccccc2)CC1 | 102 |
| CCC1(NC(=O)c2cc(C)c3ccccc3n2)CCOCC1 | 11 |
| COc1ccc(-c2cccc3[nH]ccc23)nn1 | -1 |
| Cc1cc(N2CC3COCCC3(C(=O)O)C2)nc2ccc(F)cc12 (stereo not drawn) | 10 |
| C[C@@H](c1ccc(-c2c(-c3ccccc3)ncn2CCCN(C)C)cc1)N(C)C | 24 |
| Oc1ccc(OC(F)(F)F)cc1-c1ccc2nccn2n1 | 92 |
| CNC(=O)c1ccc(C(=O)Nc2nc(C3(C)CC3)ns2)cn1 | 6 |
| COc1ccc2c(N3CC[C@H](CN4CCCC4)C3)ccnc2c1 | 102 |
| Cc1cnccc1NCCNCc1ccc(OC(C)C)c(Cl)c1 | 84 |
| Brc1cccc(NCCNC2CCN(Cc3cccnc3)CC2)c1 | 41 |
| c1ccc2c(c1)CN(c1ncnc3[nH]ccc13)CC1(CCOCC1)O2 | -5 |
| Cc1cc(N2CCC(NCCc3c[nH]cn3)CC2)nc(-c2ccccc2)n1 | 11 |
| Cc1c(CN2CCC(O)(Cn3ccnc3)CC2)[nH]c2c(Cl)cccc12 | 99 |

| SMILES | % Inhibition [%] |
| --- | --- |
| CC(C)c1ccc(-c2noc(CCN3CCN(CCCN(C)C)CC3)n2)cc1 | 30 |
| Cc1cc(N2CCC(NC3CCNC(c4ccccc4)C3)CC2)nc(C)n1 (stereo not drawn) | 33 |
| CCN(C)CC1CCN(c2nc(NCCOC)nc(N3CCC(CN(C)CC)C3)n2)C1 (stereo not drawn) | 2 |
| Cc1cnc(NC2CC(=O)N3CCCCC23)nc1NC1CC(=O)N2CCCCC12 (stereo not drawn) | 8 |
| N#Cc1ccc(N2C[C@H](COCC3CC3)C3(CCN(Cc4cccc(O)c4)CC3)C2)cc1C(F)(F)F | 89 |
| Cc1cc(N2CCC(Nc3ccnc4ccncc34)CC2)nc(C)n1 | 7 |
| Cc1ccc2nccc(N3CCC(N4CCC(O)CC4)CC3)c2c1 | 12 |
| Cc1cnccc1N1CCCN(Cc2ccccc2OCCN2CCN(C)CC2)CC1 | 102 |
| CCc1cc(NCCc2nc3cc(F)ccc3[nH]2)nc(-c2ccccn2)n1 | 9 |
| c1ccc(CNc2ccc(-c3noc(C45CCCN(CCC4)C5)n3)cn2)cc1 | 99 |
| CCNc1nc(C)cc(Nc2ccc(NC(=O)Nc3ccc(F)cc3F)cc2)n1 | 99 |
| CN(C)CCN1CCC(CNCc2ccc3ncccc3c2)CC1 | 29 |
| COc1ccc(OC2CCN(C3CCCC3)CC2)c(C(=O)NCc2cccc3[nH]ccc23)c1 | 41 |
| CN(C[C@H](O)COc1cccc(CNCCCOc2cccnc2)c1)C1CCCCC1 | 44 |
| CNc1nc(C)cc(N[C@@H]2COc3ccccc3C2)n1 | 89 |
| COc1ccc2cc(NC(=O)c3cc(-c4c(C)nn(C)c4C)[nH]n3)cnc2c1 | 81 |
| Cc1nc2ccc(Oc3ccccc3)cc2c(O)c1CN(C)C1CCN(C)CC1 | 28 |
| O=C(NC1CCN(CCOc2ccc(Cl)cc2)CC1)c1c[nH]c2ccncc2c1=O | 100 |
| Oc1cccc2c1CCC[C@@H]2NCc1ccc2occc2c1 | 55 |
| c1cc(CNC2CCN(C[C@H]3CCOC3)CC2)c2cc[nH]c2c1 | -13 |
| CC(C)(C)n1ncc2c(NCc3ccc4cccnc4c3O)ncnc21 | 37 |
